Source: patent publication EP1331219A1
Structures can show the parent of a compound that is named as a salt.

What was measured:
6H5D1C4 = assay: Competition ELISA, cross reactivity with methamphetamine analogs, antibody 6H5D1C4; type: binding, murine; conditions: Met1 = 100
3A10A6A2 = assay: Competition ELISA, cross reactivity with methamphetamine analogs, antibody 3A10A6A2; type: binding, murine; conditions: Met1 = 100
[1] = tested on: murine monoclonal antibody 6H5D1C4 (DASM243-6H5D1C4); assay: Competition ELISA on BSA-Met1 coated plates: cross reactivity with methamphetamine analogs; type: binding, mouse
[2] = tested on: murine monoclonal antibody 3A10A6A2 (DASM243-3A10A6A2); type: binding, mouse
[3] = tested on: murine monoclonal antibody DASM243-A10A6A2 (IgG1), raised against TT-Met1; assay: RIA: affinity determination by competition between labeled and unlabeled metabolite; design: species or system mouse; conditions: purified mAb, concentration of unlabeled metabolite which inhibits 50% of the binding between antibody and tracer
[4] = tested on: murine monoclonal antibody DASM243-6H5D1C4 (IgG2b), raised against TT-Met1; assay: as above; design: species or system mouse; conditions: purified mAb, concentration of unlabeled metabolite which inhibits 50% of the binding between antibody and tracer

| Compound | % inhibition as compared with the antigen Met1 (6H5D1C4) | % inhibition as compared with the antigen Met1 (3A10A6A2) | also measured |
| --- | --- | --- | --- |
| COc1ccc(CCN)cc1O [3-hydroxy-4-methoxyphenetylalamine] | 1% | 2% |  |
| CNC(C)Cc1ccc(OC)cc1 (stereo not shown) [4-methoxymetamphetamine] | 8% | 6% |  |
| CSc1ccc(CC(C)N)cc1 (stereo not shown) [4-methylthioamphetamine] | 100% |  |  |
| CC(N)Cc1ccccc1 (stereo not shown) [Amphetamine] | 1% |  | Cross reactivity, % inhibition as compared with the antigen Met1 [1]: 1%; Cross reactivity, % inhibition as compared with the antigen Met1 [2]: 29% |
| CNC(C)Cc1ccc2c(c1)OCO2 (stereo not shown) [Ecstasy, 3,4-methylenedioxymethamphetamine] | 6% |  |  |
| C[C@@H](Cc1ccccc1)N(C)CC(=O)O [Hapten 1 (Met1)] | 100% | 100% |  |
| C[C@@H]([C@@H](O)c1ccccc1)N(C)C [Methyl pseudo ephedrine] | 2% |  |  |
| CC(N)C(O)c1ccccc1 (stereo not shown) [Nor-ephedrine] | 1% | 2% |  |
| CNC(C)Cc1ccccc1 (stereo not shown) [methamphetamine oxalate] |  |  | IC50 [3]: 468 nM; IC50 [4]: 14.4 nM |
